First the molecules themselves.
B1: AUAGAAG (DNA:RNA)
RNA: GGGAGACCGGAAUUCAGAUUGUCCAUAGAAGUUAAAUCCCGUCGUAGCCACCA
DNA 1: CAATCTGAATTCCGGTCTCCC
DNA 2: TGGTGGCTACGACGGGATT
B2: GCUGUAU (DNA:RNA)
RNA: B1 RNA with A25G, U26C, A27U, A29U, G31U
DNA 1: CAATCTGAATTCCGGTCTCCC
DNA 2: TGGTGGCTACGACGGGATT
B3: UGGUGUG (DNA:RNA)
RNA: B1 RNA with A25U, U26G, A27G, G28U, A29G, A30U
DNA 1: CAATCTGAATTCCGGTCTCCC
DNA 2: TGGTGGCTACGACGGGATT
B4: CCCAGAU (DNA:RNA)
RNA: B1 RNA with A25C, U26C, A27C, G28A, A29G, G31U
DNA 1: CAATCTGAATTCCGGTCTCCC
DNA 2: TGGTGGCTACGACGGGATT
B5: CCUUGUC (DNA:RNA)
RNA: GGGAGACCGGAAUUCAGAUUGUCCCCUUGUCUUAAAUCCCGUCGUAGCCACCA
DNA 1: CAATCTGAATTCCGGTCTCCC
DNA 2: TGGTGGCTACGACGGGATT
B6: CUUCAUC (DNA:RNA)
RNA: B5 RNA with C26U, U28C, G29A
DNA 1: CAATCTGAATTCCGGTCTCCC
DNA 2: TGGTGGCTACGACGGGATT
B7: AAGAGUA (DNA:RNA)
RNA: B5 RNA with C25A, C26A, U27G, U28A, C31A
DNA 1: CAATCTGAATTCCGGTCTCCC
DNA 2: TGGTGGCTACGACGGGATT
B8: AUGAGGA (DNA:RNA)
RNA: B1 RNA with A27G, G28A, A29G, A30G, G31A
DNA 1: CAATCTGAATTCCGGTCTCCC
DNA 2: TGGTGGCTACGACGGGATT
B9: GCCGCCG (DNA:RNA)
RNA: B1 RNA with A25G, U26C, A27C, A29C, A30C
DNA 1: CAATCTGAATTCCGGTCTCCC
DNA 2: TGGTGGCTACGACGGGATT
B10: ACGACUU (DNA:RNA)
RNA: B5 RNA with C25A, U27G, U28A, G29C, C31U
DNA 1: CAATCTGAATTCCGGTCTCCC
DNA 2: TGGTGGCTACGACGGGATT
B11: ACGGUUA (DNA:RNA)
RNA: B1 RNA with U26C, A27G, A29U, A30U, G31A
DNA 1: CAATCTGAATTCCGGTCTCCC
DNA 2: TGGTGGCTACGACGGGATT
B12: AUUCACC (DNA:RNA)
RNA: B1 RNA with A27U, G28C, A30C, G31C
DNA 1: CAATCTGAATTCCGGTCTCCC
DNA 2: TGGTGGCTACGACGGGATT
B13: AAACAGU (DNA:RNA)
RNA: B1 RNA with U26A, G28C, A30G, G31U
DNA 1: CAATCTGAATTCCGGTCTCCC
DNA 2: TGGTGGCTACGACGGGATT
B14: CACCUAC (DNA:RNA)
RNA: B5 RNA with C26A, U27C, U28C, G29U, U30A
DNA 1: CAATCTGAATTCCGGTCTCCC
DNA 2: TGGTGGCTACGACGGGATT
B15: CAUGGGG (DNA:RNA)
RNA: B5 RNA with C26A, U28G, U30G, C31G
DNA 1: CAATCTGAATTCCGGTCTCCC
DNA 2: TGGTGGCTACGACGGGATT
B16: GUGCUGC (DNA:RNA)
RNA: B1 RNA with A25G, A27G, G28C, A29U, A30G, G31C
DNA 1: CAATCTGAATTCCGGTCTCCC
DNA 2: TGGTGGCTACGACGGGATT
B17: AAUCUUU (DNA:RNA)
RNA: B5 RNA with C25A, C26A, U28C, G29U, C31U
DNA 1: CAATCTGAATTCCGGTCTCCC
DNA 2: TGGTGGCTACGACGGGATT
B18: CCAGCUA (DNA:RNA)
RNA: B5 RNA with U27A, U28G, G29C, C31A
DNA 1: CAATCTGAATTCCGGTCTCCC
DNA 2: TGGTGGCTACGACGGGATT
B19: AACACCG (DNA:RNA)
RNA: B1 RNA with U26A, A27C, G28A, A29C, A30C
DNA 1: CAATCTGAATTCCGGTCTCCC
DNA 2: TGGTGGCTACGACGGGATT
B20: GCUAGUU (DNA:RNA)
RNA: B5 RNA with C25G, U28A, C31U
DNA 1: CAATCTGAATTCCGGTCTCCC
DNA 2: TGGTGGCTACGACGGGATT
B21: UAGAGUC (DNA:RNA)
RNA: B5 RNA with C25U, C26A, U27G, U28A
DNA 1: CAATCTGAATTCCGGTCTCCC
DNA 2: TGGTGGCTACGACGGGATT
B22: CGCGGUA (DNA:RNA)
RNA: B5 RNA with C26G, U27C, U28G, C31A
DNA 1: CAATCTGAATTCCGGTCTCCC
DNA 2: TGGTGGCTACGACGGGATT
B23: AGCGUUA (DNA:RNA)
RNA: B1 RNA with U26G, A27C, A29U, A30U, G31A
DNA 1: CAATCTGAATTCCGGTCTCCC
DNA 2: TGGTGGCTACGACGGGATT
B24: UUCUCUG (DNA:RNA)
RNA: B1 RNA with A25U, A27C, G28U, A29C, A30U
DNA 1: CAATCTGAATTCCGGTCTCCC
DNA 2: TGGTGGCTACGACGGGATT
B25: GCCUAAG (DNA:RNA)
RNA: B1 RNA with A25G, U26C, A27C, G28U
DNA 1: CAATCTGAATTCCGGTCTCCC
DNA 2: TGGTGGCTACGACGGGATT
B26: GGCAAUA (DNA:RNA)
RNA: B1 RNA with A25G, U26G, A27C, G28A, A30U, G31A
DNA 1: CAATCTGAATTCCGGTCTCCC
DNA 2: TGGTGGCTACGACGGGATT
B27: ACAGUGU (DNA:RNA)
RNA: B1 RNA with U26C, A29U, A30G, G31U
DNA 1: CAATCTGAATTCCGGTCTCCC
DNA 2: TGGTGGCTACGACGGGATT
B28: CUUGUGG (DNA:RNA)
RNA: B1 RNA with A25C, A27U, A29U, A30G
DNA 1: CAATCTGAATTCCGGTCTCCC
DNA 2: TGGTGGCTACGACGGGATT
B29: GCAAGUA (DNA:RNA)
RNA: B5 RNA with C25G, U27A, U28A, C31A
DNA 1: CAATCTGAATTCCGGTCTCCC
DNA 2: TGGTGGCTACGACGGGATT
B30: AAUACAG (DNA:RNA)
RNA: B1 RNA with U26A, A27U, G28A, A29C
DNA 1: CAATCTGAATTCCGGTCTCCC
DNA 2: TGGTGGCTACGACGGGATT
B31: CAGCUGC (DNA:RNA)
RNA: B5 RNA with C26A, U27G, U28C, G29U, U30G
DNA 1: CAATCTGAATTCCGGTCTCCC
DNA 2: TGGTGGCTACGACGGGATT

Residue numbers refer to the chain shown, from its start. This is one part of the list.

For the experiment, the target named is T1, RBFOX1 RRM RbFoxmut (Fox-RRM*) (Homo sapiens, UniProt Q9NWB1 109-208, R118D;E147R;N151S;E152T).
T1 sequence: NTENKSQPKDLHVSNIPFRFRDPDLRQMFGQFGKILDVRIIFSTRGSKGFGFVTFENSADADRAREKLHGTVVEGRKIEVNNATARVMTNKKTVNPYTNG
Put plainly: EMSA; HiTS-Eq, 1 nM pool, 10 min; buffer printed only for the single-RNA assays: 10 mM Tris pH 7.5, 150 mM NaCl, 3.4 mM EDTA, 0.001% NP-40, 30 C. Particulars: tags: His6 N-terminal (pET28a); label: 5' 32P. The method, boiled down: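 Relative association constants, normalised to the cognate motif, were derived by comparing read counts of each RNA species with those of the control reaction. The RNA sequenced was the free fraction, separated by 8% native PAGE after a 10 min equilibration in 50 µL of 1 nM 5′-radiolabelled RNA (7 randomized nucleotides) with increasing concentrations of purified wild-type or mutant RbFox RRM.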
On to B1, for which the binding signal is 0.142 KA relative to UGCAUGU. The same measure for B2: 0.131 KA relative to UGCAUGU; for B3: 0.498 KA relative to UGCAUGU; for B4: 0.0766 KA relative to UGCAUGU. B5: the binding signal was 0.226 KA relative to UGCAUGU.

Take B6: the binding signal was 0.0532 KA relative to UGCAUGU. The same measure for B7: 0.15 KA relative to UGCAUGU; for B8: 0.0761 KA relative to UGCAUGU. The same measure for B9: 0.0891 KA relative to UGCAUGU; for B10: 0.0809 KA relative to UGCAUGU. In the case of B11 it was 0.128 KA relative to UGCAUGU; in that of B12, 0.0656 KA relative to UGCAUGU.

In the case of B13, the binding signal is 0.0544 KA relative to UGCAUGU.

In the case of B14, the binding signal is 0.123 KA relative to UGCAUGU. As for B15, the binding signal is 0.0893 KA relative to UGCAUGU.

In the case of B16, the binding signal is 0.124 KA relative to UGCAUGU.

Turning to B17, the binding signal was 0.0586 KA relative to UGCAUGU. In the case of B18 it was 0.108 KA relative to UGCAUGU; in that of B19, 0.112 KA relative to UGCAUGU; in that of B20, 0.114 KA relative to UGCAUGU. Consider B21, for which the binding signal is 0.0745 KA relative to UGCAUGU.

As for B22, the binding signal is 0.174 KA relative to UGCAUGU. Turning to B23, the binding signal was 0.113 KA relative to UGCAUGU.

Turning to B24, the binding signal was 0.0908 KA relative to UGCAUGU. B25: the binding signal was 0.0997 KA relative to UGCAUGU. The same measure for B26: 0.0922 KA relative to UGCAUGU; for B27: 0.16 KA relative to UGCAUGU; for B28: 0.0693 KA relative to UGCAUGU. In the case of B29 it was 0.131 KA relative to UGCAUGU.

In the case of B30, the binding signal is 0.106 KA relative to UGCAUGU. The same measure for B31: 0.113 KA relative to UGCAUGU.

These data come from PMC9911399, “Two distinct binding modes provide the RNA-binding protein RbFox with extraordinary sequence specificity”.
